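Step 1: Grow cells in 96-well plates. Step 2: Expose to compound for 48 hours at 5 concentrations. Step 3: Interpolate endpoints linearly; if unreached, use highest concentration. Abbreviation: GI50, concentration required for 50% inhibition of growth.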 Calls of active or inactive are those of the source. No stated cut-off is given here; in the data, active = GI50 up to about 1.1 µM and inactive = higher.

The test system of the assay is NCI-H322M. The experiment in a line: DTP human tumour cell line panel, 48 h.
As to `CC(O)c1cc2c(s1)C(=O)c1sccc1C2=O` (centres undefined), the GI50 is active: 0.197 µM.

Take `Cc1c(Cl)cc(C(C)(C)C)c(O)c1Cc1c(C)c(Cl)cc(C(C)(C)C)c1O`: the GI50 is inactive: 2.3 µM.

With `COc1ccc2[nH]c(C(O)(Cc3cccnc3)Cc3cccnc3)cc2c1`, the GI50 is inactive: > 100 µM.

For the molecule `CN1N=C(N)c2cn(C3OC(COP(=O)(O)O)C(O)C3O)c3ncnc1c23` (centres undefined), the GI50 is inactive: 2.49 µM.

`c1c[nH]c(CN2CCOCC2)n1`: the GI50 was inactive: > 100 µM.

As for `Fc1cc(-c2cc(-c3ccc4c(c3)OCO4)n[nH]2)c(Cl)cc1Cl`, the GI50 is inactive: 2.23 µM.

For the molecule `CC1=N/C(=C\c2c(O)ccc3ccccc23)C(=O)O1`, the GI50 is inactive: > 100 µM.

Turning to `COc1cccc2c1[C@H]1OC(=O)NC1CCCCC2` (some centres undefined), the GI50 was inactive: > 100 µM.

In the case of `Cc1ccccc1NC(=O)C(=O)C(C(=O)c1ccccc1F)C1OC(=O)c2ccccc21` (centres undefined), the GI50 is inactive: 23.9 µM.

For the molecule `COc1cc(/C=C2\C(=O)N(c3ccc(Cl)cc3)C(c3ccccc3)S2(=O)=O)cc(OC)c1OC` (centres undefined), the GI50 is inactive: 61.1 µM.

On to `CCCCCCCCCC(=O)NCCc1c[nH]c2ccc(OC)cc12`, for which the GI50 was inactive: 18.4 µM.

Consider `Cc1ccc(/C=C2\N=C(N3CCOCC3)NC2=O)cc1`, for which the GI50 is inactive: > 100 µM.

As for `COc1ccc(/C=N/NC(=O)c2ccccc2Nc2ccccc2C(=O)N/N=C/c2ccc(OC)c(OC)c2)cc1OC`, the GI50 is inactive: > 100 µM.

With `COc1ccc([C@H]2C=C(c3cc(F)c(Cl)cc3Cl)NC(=S)N2)cc1`, the GI50 was inactive: 51.3 µM.

Consider `CC(C)[C@H](C)/C=C/[C@@H](C)C1CC[C@H]2[C@@]34C=C[C@]5(C[C@@H](O)CC[C@]5(C)[C@H]3CC[C@]12C)OO4` (some centres undefined), for which the GI50 was inactive: 32.7 µM.

For the molecule `O=C1CCN2C(=O)CCN12`, the GI50 was inactive: > 100 µM.

On to `Cc1nc2c(c(N3CCN(C)CC3)n1)Cc1ccccc1-2`, for which the GI50 is inactive: 66.8 µM.

In the case of `CN(CCn1cnc2c1c(=O)n(C)c(=O)n2C)C1CCCCC1`, the GI50 is inactive: > 100 µM.

For the molecule `Cc1ccc(C(=O)N2CCN(C(=O)c3ccc(C)cc3)c3ccccc32)cc1`, the GI50 was inactive: 9.48 µM.

For `COC1(C)CNCC(C)(C)NC(=O)C(C)(OC)CNCC(C)(C)NC1=O` (centres undefined), the GI50 is inactive: > 100 µM.

In the case of `O=c1[nH]cc(COCC(O)CO)c(=O)[nH]1` (centres undefined), the GI50 was inactive: > 100 µM.

Turning to `COC(=O)[C@H]1C[C@H]1NC(=O)C(CC(=O)OCc1ccccc1)NC(=O)OCc1ccccc1` (some centres undefined), the GI50 was inactive: > 100 µM.

Turning to `Oc1cccc2c(Br)ccnc12`, the GI50 was inactive: 12.6 µM.

In the case of `COC(CNC(=O)C(C)NC(=O)/C=C/c1ccccc1)OC` (centres undefined), the GI50 is inactive: > 100 µM.

Consider `COC(=O)/C=C1\CCC(C)O1` (centres undefined), for which the GI50 was inactive: > 100 µM.

For `COc1ccc(N2C(=O)C(=O)N(c3ccc(/N=N\c4ccccc4)cc3)C2=S)cc1`, the GI50 is inactive: 23.2 µM.

As to `N#C/C(=C/N1C(=O)/C(=C/c2ccc([N+](=O)[O-])cc2)SC1=S)c1nc2ccccc2s1`, the GI50 is inactive: 21.2 µM.

On to `OC(c1ccsc1)c1cc2ccccc2s1` (centres undefined), for which the GI50 was inactive: > 10 µM.

In the case of `CCc1[nH]nc(C(N)=O)c1/N=N/N(C)C`, the GI50 is inactive: > 100 µM.

Turning to `O=C(Nc1ccccc1C(=O)O)/C(=C/c1ccccc1)NC(=O)c1ccccc1`, the GI50 is inactive: > 100 µM.

`CC(=O)c1ccc2c(c1)c1c(C)c3c[n+](C)ccc3c(C)c1n2C`: the GI50 is inactive: 6.75 µM.

For `CC(C)(C)/N=C1/CC(C)(C)c2ccccc2/C(=N\c2ccccc2)S1`, the GI50 is inactive: > 100 µM.

For `N#CC1C(=O)N(c2ccccc2)NC12OC(=O)c1ccncc12` (centres undefined), the GI50 is inactive: > 20 µM.

On to `CC(=O)Oc1c(OC(C)C)cc(=O)n2ccsc12`, for which the GI50 is inactive: > 100 µM.

Take `CCN1CCN(c2ccc(Nc3ccnc4ccc5c(nnn5C)c34)cc2)CC1`: the GI50 is inactive: 5.68 µM.

Turning to `N#CC(C#N)=c1c(=O)c2c3ccccc3cc3cccc1c32`, the GI50 was inactive: > 100 µM.

Regarding `Nc1nc(N)c2ncn(Cc3ccccc3)c2n1`, the GI50 is inactive: > 100 µM.

For `CC1OC(O[C@H]2CC[C@]3(C)[C@H]4CC=C5[C@@H]6[C@@H](C)[C@H](C)CC[C@]6(C(=O)OC6OC(CO)C(O)C(O)C6O)CC[C@@]5(C(=O)O)[C@]4(C)CC[C@H]3C2(C)C)C(O)C(O)C1O` (some centres undefined), the GI50 was inactive: > 100 µM.

As to `CCOC(=O)c1c(-c2ccc(O)c(OC)c2)c(C#N)c(=S)n(C2OC(CO)C(O)C(O)C2O)c1-c1ccccc1` (centres undefined), the GI50 is inactive: > 100 µM.

Consider `Cc1nc(-c2cc3ccccc3oc2=O)cs1`, for which the GI50 was inactive: > 100 µM.

On to `COc1ccc(/C=C2/N/C(=N\N=C/C(O)C(O)C(O)C(O)CO)NC2=O)cc1` (centres undefined), for which the GI50 is inactive: > 100 µM.

With `O=C1C2Nc3ccccc3SC2C(=O)N1c1ccc(Br)cc1` (centres undefined), the GI50 was inactive: 8.2 µM.

As for `COc1cccc2cc(C(=O)NC34CC5CC(CC(C5)C3)C4)c(=N)oc12`, the GI50 is inactive: 98.4 µM.

Consider `NC(=O)c1ncn(C2C=CC(CP(=O)(O)O)C2)c1N` (centres undefined), for which the GI50 is inactive: > 100 µM.

In the case of `Nc1ncnc2c(C3OC(CO)C(O)C3O)c[nH]c12` (centres undefined), the GI50 was active: < 0.0141 µM.

As to `COc1c(C2(c3ccc(F)cc3)SCCCS2)c(=O)c1=O`, the GI50 is inactive: > 100 µM.

Consider `C[C@@]12CCC3C1C=C1C(=O)c4cc(O)ccc4C(=O)[C@]1(O2)[C@@]3(C)C=O`, for which the GI50 was inactive: 9.12 µM.

With `CC(=O)c1sc2c(c1OC(=O)c1cccs1)c(=O)n(-c1ccccc1)c(=S)n2-c1ccccc1`, the GI50 is inactive: 20.7 µM.

Take `COc1ccc(C23OCC(Cc4cc(OC)c(OC)cc42)C3CO)cc1OC` (centres undefined): the GI50 was inactive: > 100 µM.

With `Cc1cc([N+](=O)[O-])c(S(=O)(=O)c2ccccc2)c([N+](=O)[O-])c1`, the GI50 is inactive: 15 µM.

`O=C1NC(=O)C(C(c2ccc(Cl)cc2)C2C(=O)NC(=O)NC2=O)C(=O)N1.c1ccncc1`: the GI50 is inactive: > 100 µM.

For `Cc1noc(-c2ccc(C(=O)O)[nH]2)c1Br`, the GI50 is inactive: 91.2 µM.

Consider `CC(=O)OCC1OC(O[C@H]2C=C[C@@H](C(=O)OCc3ccccc3)n3c(=O)n(-c4ccccc4)c(=O)n32)C(OC(C)=O)C(OC(C)=O)C1OC(C)=O` (some centres undefined), for which the GI50 is inactive: 16.8 µM.

Turning to `C=C[C@@]1(C)CC(=O)[C@]2(O)[C@@]3(C)[C@@H](OC(C)=O)CCC(C)(C)[C@@H]3[C@H](OC(C)=O)[C@H](OC(C)=O)[C@@]2(C)O1`, the GI50 is inactive: > 100 µM.

With `FC(F)(F)C12C34C=CC5(CCC6(C=CC1(CC3)O6)C52C(F)(F)F)O4` (centres undefined), the GI50 was inactive: > 100 µM.

Take `COc1ccc(/C=C(\C(=O)OCC(C)C)c2ccc(OC)c(OC)c2)cc1OC`: the GI50 is inactive: > 100 µM.

In the case of `C=CCN1C[C@H](C)N([C@H](c2ccc(C(=O)NC(CC)CC)cc2)c2cccc(OC)c2)C[C@H]1C`, the GI50 is inactive: 89.3 µM.

In the case of `CCCCCCCCCCCCCCCC(=O)OCC1CCCN2CCCCC12` (centres undefined), the GI50 was inactive: > 100 µM.

With `N#CC(c1ccnc(Cl)n1)c1nc2ccccc2s1` (centres undefined), the GI50 was inactive: 14.3 µM.

`Oc1ccc(C(O)(c2ccccc2)c2ccccc2)c2ccccc12`: the GI50 was inactive: 2.12 µM.

As for `C(=N\C12CC3CC(CC(C3)C1)C2)/C1CCCCC1`, the GI50 was inactive: > 100 µM.

Consider `C=CCOC(=O)C1CCC(=O)N1C(=O)C(Cl)Cl` (centres undefined), for which the GI50 is inactive: > 100 µM.

Turning to `NCCNCCCNC(=O)c1cc(-c2ccccc2)nc2ccccc12`, the GI50 was inactive: 46.8 µM.

As for `CCOP1(=O)C=C(C)C(=C(Cl)Cl)C(C)=C1` (centres undefined), the GI50 is inactive: 20.8 µM.

For `OCC1CC2CC1C1(C2)OCCO1` (centres undefined), the GI50 is inactive: > 100 µM.

On to `O=C(/C=C\c1cccc2ccccc12)c1cccs1`, for which the GI50 is inactive: 14.7 µM.

With `Cc1cccc(C2ON=C(c3ccccc3)N2C23CC4CC(CC(C4)C2)C3)c1` (centres undefined), the GI50 was inactive: > 10 µM.

As to `CN/C=C(\C(=O)c1ccc(OC)c(OC)c1)c1ccc(OC)cc1`, the GI50 is inactive: 16.4 µM.

Take `C/C(=N\NC(=S)N1CCC(N2CCCCC2)CC1)c1ccccn1`: the GI50 was inactive: 2.52 µM.

`CC(O)CN1C(=O)NC(Cc2ccccc2)C1=O` (centres undefined): the GI50 is inactive: > 100 µM.

`O=C1/C(=C/c2ccc(Cl)cc2)CSC/C1=C\c1ccc(Cl)cc1`: the GI50 was inactive: 11.2 µM.

On to `CC/C(CC(=O)CCC(=O)Nc1c(C)cccc1C)=N\NC(=O)NN`, for which the GI50 was inactive: > 100 µM.

Consider `O=C(Nc1nc2ccccc2n1Cc1ccccc1)NC12CC3CC(CC(C3)C1)C2`, for which the GI50 is inactive: 23.6 µM.

With `CO/C(=N\N=C\c1ccc(OC)c(OC)c1)c1ccncc1`, the GI50 was inactive: > 10 µM.

On to `Cc1ccc(C(=O)N/N=C(\N=N\c2ccccc2)c2ccc(N(CCC#N)CCC#N)cc2C)cc1`, for which the GI50 is inactive: > 100 µM.

Turning to `CN(C)CCNc1ccc(CO)c2sc3ccc(O)cc3c(=O)c12`, the GI50 is inactive: 4.09 µM.

Turning to `Oc1ccc2c3c1OC1c4[nH]ncc4C[C@H]4[C@@H](C2)N(CC2CC2)CC[C@]314` (some centres undefined), the GI50 is inactive: > 100 µM.

Turning to `COC(=O)/C=C/C1C2C3(CCC(C)C12C)OCCS3` (centres undefined), the GI50 is inactive: > 100 µM.

Regarding `COC(=O)C1C(=O)O[C@@H](c2ccc(OC)cc2)C1C(=O)OC` (some centres undefined), the GI50 was inactive: > 100 µM.

As for `C[C@]1(CO)CCC[C@@]2(C)C1CC[C@H]1CC3C[C@]12CC[C@]3(C)O` (some centres undefined), the GI50 is inactive: > 100 µM.

For the molecule `CC(C)(O)C1CC[C@]2(C)[C@H]3CC[C@@H]4[C@@]5(C)CCCC(C)(C)[C@@H]5CC[C@@]4(C)[C@]3(C)CC[C@@H]12` (some centres undefined), the GI50 was inactive: > 100 µM.

As for `COc1cccc(-c2cc(O)c3cc(C)cnc3n2)c1`, the GI50 is active: 0.427 µM.

Consider `Cc1cccc(NC(=O)c2cccc([N+](=O)[O-])c2O)c1C`, for which the GI50 was inactive: 25.4 µM.

In the case of `O=C(/C=C/c1ccc(O)c(O)c1)Oc1ccccc1`, the GI50 is inactive: 22.9 µM.

These data come from ChEMBL document CHEMBL1201862, “PubChem BioAssay data set” (2004).
